{"source": "paper PMC7007966", "about": "(Journal of medicinal chemistry, 2019)", "key": {"[1]": {"system": "Male C57BL/6 wild type mice", "details": "ip administration; cited from earlier work"}, "[2]": {"system": "Male C57BL/6 wild type mice", "details": "cumulative dosing up to 10 mg/kg ip, 50°C WWTW"}}, "data": [{"compound": "CC(=O)N1CC[C@@H](NC(=O)[C@@H](N)Cc2c(C)cc(O)cc2C)c2cc(Cc3ccc4ccccc4c3)ccc21.O=C(O)C(F)(F)F", "note": "[Compound 2B]", "values": [{"measurement": "Antinociceptive activity (in words), previously reported compounds", "setting": "[1]", "result": "full antinociceptive efficacy"}, {"measurement": "Duration of action (in words), previously reported compounds", "setting": "[1]", "result": "greater than four hours"}]}, {"compound": "CC(=O)N1CC[C@@H](NC(=O)[C@@H](N)Cc2c(C)cc(O)cc2C)c2cc(CN3CCc4ccccc4C3)ccc21.O=C(O)C(F)(F)F", "note": "[Compound 2D]", "values": [{"measurement": "Antinociceptive activity (in words), previously reported compounds", "setting": "[1]", "result": "full antinociceptive efficacy"}, {"measurement": "Duration of action (in words), previously reported compounds", "setting": "[1]", "result": "greater than four hours"}]}, {"compound": "Cc1cc(O)cc(C)c1C[C@H](N)C(=O)N[C@@H]1CCN(S(C)(=O)=O)c2ccc(Cc3ccccc3)cc21.O=C(O)C(F)(F)F", "note": "[Compound 4A]", "values": [{"measurement": "Antinociceptive activity (in words)", "setting": "[2]", "result": "full antinociceptive activity"}]}, {"compound": "Cc1cc(O)cc(C)c1C[C@H](N)C(=O)N[C@@H]1CCN(S(C)(=O)=O)c2ccc(CN3CCc4ccccc4C3)cc21.O=C(O)C(F)(F)F", "note": "[Compound 4D]", "values": [{"measurement": "Antinociceptive activity (in words)", "setting": "[2]", "result": "full antinociceptive activity"}]}, {"compound": "Cc1cc(O)cc(C)c1C[C@H](N)C(=O)N[C@@H]1CCN(C(=O)c2ccccc2)c2ccc(Cc3ccc4ccccc4c3)cc21.O=C(O)C(F)(F)F", "note": "[Compound 5B]", "values": [{"measurement": "Antinociceptive activity (in words)", "setting": "[2]", "result": "full antinociceptive activity"}]}, {"compound": "Cc1cc(O)cc(C)c1C[C@H](N)C(=O)N[C@@H]1CCN(C(=O)c2ccccc2)c2ccc(Cc3cnc4ccccc4c3)cc21.O=C(O)C(F)(F)F", "note": "[Compound 5C]", "values": [{"measurement": "Antinociceptive activity (in words)", "setting": "[2]", "result": "full antinociceptive activity"}]}]}
